According to the supplement of paper PMC11417369:
± gives the standard deviation of the averaged measurements. This is one part of the list.

Tested on: PfAP2-G AP2 domain (GST-tagged)
Test: gcPBM binding intensity (ln(normalized median fluorescence intensity)); higher = stronger DNA binding
Summary of the method: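 Binding intensity values are the highest Masliner-normalised natural-log median intensity among replicate spots of either probe orientation. The binding step lasted 1 h in 1× PBS with 1% milk, 0.2 mg/ml BSA, 0.5% salmon testes DNA and 0.03% Triton X-100, using GST-tagged P. falciparum DNA-binding domains expressed in E. coli on an Agilent 4 × 180k array of primer-extended double-stranded 36-bp intergenic genomic probes plus negative controls. Alexa488 anti-GST antibody and a 488 nm scan detected bound protein.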

Sequence | gcPBM binding intensity (ln)
ATATTTAAATGGATCACACATATATATATATATATA [CACACA_site5255] | 10.2 ± 0.57
TTAAAAAATAACAAGGTGCAAATAGGTTTATAAAAT | 10.2 ± 0.11
ACTTACACATTTATTACACACATAAAGGAAAATTTT [CACACA_site1356] | 10.3 ± 0.27
CACTAATAGTGGATTACACACATATATATGTATATA [CACACA_site2531] | 10.23 ± 0.014
CGCGAAGTAGCATTCACACACAGCAAAATATATATA [CACACA_site3495] | 9.995 ± 0.035
TTTTTATTTTTATACATATAATATATTATGATTAAA [CACACA_negctrl_site214] | 9.94 ± 0.24
ACAGCATAATCATGCTGTACATTATTTTCTTAAGTA [XGTACX_site8456] | 10.9 ± 0.6
AGAGACTTAGAAAACACACATACATAAGATAATTTA [CACACA_site2377] | 10.1 ± 0.24
TTTTTAACATTTAAATGTACATGTTACAATTTAAAG [XGTACX_site8789] | 11.1 ± 0.73
TACTAAAACCCATACACACACATATATATAGTACCA [CACACA_site3184] | 10.7 ± 0.5
TAAAATAAAAGTGAAACACACAGTATTTTACAACAT [CACACA_site3811] | 9.74 ± 0.071
AAAATAGCTGTATAGAGTACATATAAATAATGTTGT [XGTACX_site5692] | 11.2 ± 0.72
TGCAAAAAATTCCACACACACACACGCATATAAATA [CACACA_site6696] | 10.2 ± 0.3
ATAACAATTATTTGTCGACACACGTATATGTTATTT [CACACA_site1766] | 10.17 ± 0.099
CAAGCTTTTTCCTTTACACACATTAATTATATATAT [CACACA_site1423] | 10.04 ± 0.021
TTTTGAAGAAAATTCTTTTTTTTTTTTTTTTGTAAA [CACACA_negctrl_site102] | 9.45 ± 0.16
ATATAATGACAAGTATAAGTATCACAAAGAAATAAA [CACACA_negctrl_site1403] | 10.3 ± 0.14
CCACTTTTTGAAGACACACACAAAAAAAAAAAAAAA [CACACA_site2551] | 10.3 ± 0.64
TCATATAATATTTATATGCACACTTTTCTATATATA [CACACA_site4075] | 9.885 ± 0.049
TTTCGTCATTTTGTTTTTAATTCTACAATTTAGTTA [XGTACX_negctrl_site286] | 10.03 ± 0.042
CATTTTTCTATATGTGCATGTAAGATAAGAATAATT [TGCATGCA_site107] | 10.4 ± 0.32
TACTTATTATGAAACACACACCAAAACTACAGAATA [CACACA_site6265] | 10.4 ± 0.37
AAAAAAAAAGGTACTACACACTATTATCAATAGAAA [CACACA_site91] | 11.2 ± 0.87

Sequence | gcPBM binding intensity (ln)
CAAAATAAAAAATTCACACACATATAAATATAAATA [CACACA_site7065] | 9.74 ± 0.16
TTATATATTTATAAATGTACATATAATTTTTTTATA [XGTACX_site4696] | 11.1 ± 0.67
CTGATATATAGATGTAGTACATAAAAATGACGAATT [XGTACX_site5612] | 11.5 ± 0.77
ATATTTTTATTTAAATCACATCATTTTGTTTATTTG [CACACA_negctrl_site1056] | 9.71 ± 0.26
CATATAATTATTGAAAGTACATACAAATAAAAAGAT [XGTACX_site6535] | 11.3 ± 0.76
ATTTAATTTATTATGTGTACTTATTTAATTAAATTA [XGTACX_site3171] | 11.6 ± 1.2
TTTTGTGAATTTTAGATTTTTTAATACAAGAATATT [CACACA_negctrl_site606] | 9.685 ± 0.021
ATATTTACCACTGTATGTACATATATAAAATATATC [XGTACX_site6373] | 11.2 ± 0.71
ATATATATATGTATATGTACATATATATACACATAT [XGTACX_site140] | 11.1 ± 0.71
TAAATATATTTATATTGTACATTTATGTTGATACCA [XGTACX_site228] | 10.8 ± 0.51
TGAGCACAAATACAGGTGCATATAAAATATATGACG | 10.02 ± 0.049
AGAGGCCAGCTTTCTCTTCTAAACATGTACAAAAAT [GTGCAC_negctrl_site98] | 11.2 ± 0.48
AAAAAAATAAAATGTTCACACATTTCACAATTACTT [CACACA_site4859] | 9.835 ± 0.049
TTTACAGATACTTGCTCACACATATGTATAAAAATA [CACACA_site4928] | 10.3 ± 0.3
TATAATATATATAGGAGTACGTATGTATATTTATAA [XGTACX_site3521] | 11.3 ± 0.81
ATATATATATAGTGCACACATATAAAATATATATAA [CACACA_site2745] | 10.4 ± 0.52
AAGTAAAAAAATAGCACACACACAAAAACACCCACA [CACACA_site1291] | 10.9 ± 0.71
AATAGTTAAATGTACACACTAACTACATGGAATATA [CACACA_site3262] | 11.4 ± 0.98
TATATATAAAACATATGTACATATATATATATATAT [XGTACX_site419] | 11.4 ± 1
ATATTTTATAATTTTACACACCATATAAAATAATTC [CACACA_site2797] | 10.05 ± 0.049
ACATGAAACTATAAACGTACATACATACATATATAT [XGTACX_site5011] | 11.3 ± 0.67
AGGCTCATTTTTTTTAGTACATCAAAAAAAAAAAAA [TGCATGCA_negctrl_site591] | 11.1 ± 0.89
CTATTTTTTGTATAAACATGCATATAGTAGATATGG [TGCATGCA_site670] | 10.1 ± 0.23

Sequence | gcPBM binding intensity (ln)
TTTAATATTTTTTTTTGTACTTATTTGTAGAAATAT [XGTACX_site3046] | 11.2 ± 0.83
TGTATGTTTATTTGATGTACGGTCATACATATAAAT [XGTACX_site5176] | 10.8 ± 0.5
AAATTCATATGAATTTGTACGGACATAAATATCTTC [XGTACX_site1838] | 11.2 ± 0.71
ATTCATAATATTATAACACACGCTTATTACATAAAG [CACACA_site980] | 10.03 ± 0.064
TAATATTGTATTTATGTACACACATTTTTGGAATAT [CACACA_site8371] | 11.4 ± 0.83
AGTGTATTAATTCTCACACACTAAGAAAAAAAAAAA [CACACA_site6007] | 10.1 ± 0.3
TTTTTTAATAAATGGTGTACATATTTTTTTTATACT [XGTACX_site8584] | 11.8 ± 0.87
CGCATGTATTTTGTGTGTACTAATTATAATCAACTT [XGTACX_site4709] | 11.4 ± 0.83
TTTTACATATACATGTGTACATAACAAAGAATGTTT [XGTACX_site2406] | 11.3 ± 0.84
TTTTTTTTATTAAAAAGTACTAAACAAATTATATAT [XGTACX_site121] | 11.1 ± 0.73
TAACACATATATTGTTGTACATTCAAACTGAAAAAT [XGTACX_site5565] | 11 ± 0.57
TATATACATATGTGATGTACATTTTTTGTAATATAA [XGTACX_site6985] | 11.1 ± 0.5
ATATATATATATATGTGTACATATGTATATATATCT [XGTACX_site2930] | 11.3 ± 0.75
AGATGGAGAAAGTTATGTACACATATATAAATATGT [XGTACX_site6150] | 11.5 ± 0.79
CCCATGTAATGAACATGTACATAATAATTTATAAAT [XGTACX_site8687] | 11.2 ± 0.81
AAACATCATAAATATACACACATATTTATATTTATA [CACACA_site6437] | 9.895 ± 0.064
ATGTCTACAGTTTTTGCACACATATAAATAAAAAAA [CACACA_site3600] | 10.5 ± 0.52
ATTTTTTTTTTTTTTTTTTTTGAGAAGAACTTTTTC [CACACA_negctrl_site1019] | 9.79 ± 0.11
TTTTAAAAAGAAAAAAATAACATACATATATATATA [CACACA_negctrl_site240] | 9.71 ± 0.36
CCATAACTCATATGCACACATAAATATTACATATAT [CACACA_site3821] | 10.2 ± 0.18
ACTCATAAAAATAGATGTACTTTAATAATTTGATTT [XGTACX_site8763] | 11.3 ± 0.84
TCAAACGGTTAAATATGTACATATATATATATATAT [XGTACX_site2339] | 11.1 ± 0.65
AAAAAAAAAAGACACACACACATATAAATATAAATA [CACACA_site6899] | 10 ± 0.2

Sequence | gcPBM binding intensity (ln)
TAAGAGATATTTTATTAAATGTTTTATGAATCATGT [TGCATGCA_negctrl_site264] | 9.46 ± 0.22
AGGAAAAAAAAAATGACACACATATTTGAATTAAAA [CACACA_site1352] | 9.965 ± 0.007
ACCCACTTTTGAGGTGTGCACAATAAATTGGACATT | 10.9 ± 0.61
ATATATATTTAAACTACACACGCATATCTTAGAAAT [CACACA_site8348] | 10.145 ± 0.007
GTACATACATAAAACACACACATATAGATTTATATA [CACACA_site6945] | 10.7 ± 0.24
AGTGTGTGTAATAAAGTGCATTAAAAATGACACGTA | 10.4 ± 0.42
ATATTAAAATGAAAATATAAAAAAAAAAAAAAAAAA [CACACA_negctrl_site1559] | 9.54 ± 0.65
CAATCAAATAGACACACACACACCTAAACATAAAAG [CACACA_site7322] | 10.2 ± 0.25
AGCCATTAATTCTCTACACACCTTTATGTTATTTAG [CACACA_site3635] | 10.1 ± 0.2
TATTAATAAAAGCATTGTACAGTAATAAATAAATAA [XGTACX_site2924] | 10.8 ± 0.48
TATATATATAAACACACACACACCAAAGCGTAGCGC [CACACA_site7903] | 10.1 ± 0.14
TTGTATTCATAACAACGTACATATTTTGTAACTAAA [XGTACX_site4029] | 11.1 ± 0.69
TTTCAAACAAAAAGACGTACACTGAAGTTATCCGTC [XGTACX_site8824] | 11.8 ± 1
AAGGAAATATAATATACACACATAAGTGTACTTCTA [CACACA_site6079] | 11.7 ± 1.1
TGTTTATTTTTAAAAAGTACATATTTAAAAAACTTC [XGTACX_site271] | 11.4 ± 1
TTTTCTAAATAAATAGTGCATTTATTATATATACAT [GTGCAC_site9766] | 9.97 ± 0.13
CAAAACCTTATATGTACACACATATACATCACCCTT [CACACA_site3170] | 11.5 ± 0.92
ATAGAATAAAACTATACACACCTATATTTAAACATA [CACACA_site5106] | 9.9 ± 0.014
ATTTCTCTATCGTAATGTACATAAAAAATGAAAAAA [XGTACX_site1201] | 11.3 ± 0.71
CAAAAGAAGGTAAACACACACACACGCATACAAAAA [CACACA_site7724] | 10.2 ± 0.14
